Data as given in ChEMBL document CHEMBL4888484, “Replenishing the malaria drug discovery pipeline: Screening and hit evaluation of the MMV Hit Generation Library 1 (HGL1) against asexual blood stage Plasmodium falciparum ,using a nano luciferase reporter read-out” (2022).
In all, about 150,000 compounds went through this assay and about 540 (0.36%) showed an effect of 50% or more. The list shows a part of the results.

What follows are molecules tested on Plasmodium falciparum (assay: Primary screen in NF54 nanoGlo assay, in single point, at 2uM, 72h; a lower Z score goes with more inhibition). Conditions: timepoint 72 hour.
Assay type: functional, Erythrocyte

Row | Compound | % Inhibition [%] | Z score
1 | CCC1=NO[C@@H](CN(C)Cc2snnc2C)C1 | 1 | -0.05
2 | O=C(c1cc(-c2ccccc2)nc2ccccc12)N1CCC(O)(C(=O)O)CC1 | -10 | 1.99
3 | COc1ccc([C@H](C)NC(=O)N2CCC(Nc3ccccc3C)CC2)c(OC)c1 | -5 | 0.82
4 | O=C(c1ccco1)N1CCN(c2nc(CN3CCN(c4ccccc4Cl)CC3)cc(=O)[nH]2)CC1 | 2 | -0.21
5 | CCCCN(C)C(=O)c1c(C)c(S(=O)(=O)N2CCC(C)CC2)c(C)n1C | -15 | 1.94
6 | CCOc1cccc(CN2CCCn3nc(CNC(=O)C4CCC4)cc3C2)c1 | -16 | 1.52
7 | CCc1nn(C)c(Cl)c1CN(C)Cc1nc(C)cs1 | -8 | 1.57
8 | COCc1nc(CNC(=O)Cc2ccc3c(c2)CCCO3)cs1 | -6 | 0.8
9 | Cc1cc2c(cc1C)N(c1nc3c(cnn3C)c(=O)[nH]1)CC2 | 7 | -0.86
10 | Cc1cc([C@@H](O)CNC(=O)CC(C)(C)C)c(C)o1 | 1 | -0.1
11 | O=S1(=O)CCc2nnc(-c3cc4c(s3)CCCCC4)n2CC1 | 6 | -1.17
12 | CN(C[C@H]1CCCCO1)C(=O)Cn1nnnc1CN1CCCCCC1 | -8 | 1.19
13 | FC(F)[C@H]1CCCN1Cc1ccn[nH]1 | -1 | 0.08
14 | Cn1cc([C@]2(CNC(=O)c3cc4n(n3)CCCO4)CCCO2)cn1 | -8 | 1.29
15 | CON1C(=O)C(C)(C)N(OC)C(=O)C1(C)C | -1 | 0.19
16 | COC(=O)N[C@@H](CC(C)C)C(=O)Nc1cccc(-c2ncc(C)[nH]2)c1 | -3 | 0.56
17 | CCCc1onc(C)c1C(=O)NS(=O)(=O)c1ccc(C)s1 | -6 | 0.88
18 | C#C[C@H](C)OC(=O)c1cccc(C(=O)NC)c1 | -5 | 0.66
19 | Cc1c[nH]c(CN(C)C(=O)C2(N3C[C@@H](C)O[C@@H](C)C3)Cc3ccccc3C2)n1 | 2 | -0.31
20 | CCC1NC2(C(=O)N(CC(=O)Nc3ccc(C)cc3)c3ccccc32)C2C(=O)N(Cc3ccccc3)C(=O)C12 (stereo unspecified) | 0 | -0.02
21 | CCC[C@@H](CNC(=O)c1cc(F)cc(Cl)c1)N(C)C | -2 | 0.23
22 | O=C(NC[C@H]1CCOC2(CCC2)C1)c1ccncc1Br | 3 | -0.45
23 | CC1CN(C(=O)Cn2cc(NC(=O)C3(C)COC3)cn2)CC(C)O1 (stereo unspecified) | 12 | -1.55
24 | O=C([C@H]1CCCN(c2c(-c3ccccc3)c3cc(Cl)ccc3[nH]c2=O)C1)N1CCN(CCO)CC1 | -9 | 0.98
25 | CC(C)CCC(C)NC(=O)NCC1CCCS1(=O)=O (stereo unspecified) | -4 | 0.49
26 | CC1CC(c2ccsc2)CN1C(=O)NCCN1CCOCC1 (stereo unspecified) | -12 | 2
27 | Cc1ccc(C)c(-n2ncnc2[C@H](C)N2CCN(C)CC2)c1 | 4 | -0.63

Row | Compound | % Inhibition [%] | Z score
28 | Fc1ccc(-c2nc(N3CCOCC3)ncc2-c2nnnn2-c2ccccc2)c(F)c1 | 7 | -0.79
29 | CC(C)(CCC#N)CNC[C@H]1CCCn2cc(C(C)(C)C)nc21 | -13 | 2.01
30 | CS(=O)(=O)C[C@H](NCC1=Cc2ccccc2OC1)c1ccccc1 | -3 | 0.3
31 | CNc1nc(C)cc(C(=O)N(CC(C)C)C2CCN(C)CC2)n1 | 3 | -0.33
32 | Cc1oc(S(C)(=O)=O)cc1C(=O)N[C@@H](C)c1n[nH]c(C(C)C)n1 | -6 | 0.96
33 | O=C(NCC1CCN(Cc2cc[nH]n2)CC1)c1ccccn1 | -1 | 0.19
34 | OCC1CCCCC1Nc1nccc(C(F)(F)F)n1 (stereo unspecified) | -15 | 2.79
35 | CCS(=O)(=O)c1ccccc1NCCc1cn2c(n1)CCCC2 | -10 | 1.12
36 | COc1cccc(-c2cc(O)n(-c3ccccc3OC)n2)c1 | -5 | 0.71
37 | NC(=O)CN1CCC(NC(=O)c2cc3c(s2)CCCCC3)CC1 | -3 | 0.57
38 | FC(F)(F)Oc1ccc(-c2c[nH]c([C@@H]3COCCN3C3CCOCC3)n2)cc1 | -4 | 0.67
39 | Cc1ccc2nc(N3CCC[C@H](O)C3)c(CN3CCN(CCO)CC3)cc2c1 | -11 | 1.09
40 | CC1(C(=O)NC[C@@]2(C)CCN(C(=O)C3(C)COC3)C2)COC1 | -7 | 1.35
41 | O=C(NC1CC1)C1CCCN1C1CCCN(CC(F)(F)F)C1=O (stereo unspecified) | -24 | 2.82
42 | CC[C@H](C)CS(=O)(=O)Cc1nsc(N(C)C)n1 | -5 | 0.64
43 | CO[C@@H](C(=O)N1CCC(n2cc(Cl)cn2)CC1)c1ccccc1 | -9 | 0.98
44 | CCN(Cc1cc[nH]n1)C1CCCCC1 | -2 | 0.43
45 | Cc1cccc(C)c1OC1CCN(C(=O)Cc2c(C)noc2C)CC1 | -8 | 1.04
46 | C=CCn1c(C)c(CCC(=O)N[C@@H](C)CC)c(=O)n2nc(-c3ccccc3)nc12 | -23 | 2.27
47 | Cc1ccc(S(=O)(=O)N2CCC[C@@H]3C[C@@]32C(=O)O)c(Cl)c1 | -3 | 0.37
48 | CCOCCO/C(=N/C(=O)c1ccc(OC)cc1)NC[C@H]1CCCO1 | -24 | 2.15
49 | CCOC(=O)CCNC(=O)N1CCC(N2C[C@@H](Oc3ccccc3)C[C@H]2C(=O)NC)CC1 | -11 | 1.37
50 | O=C(Cc1csc(Nc2ccc(F)cc2)n1)NC[C@H]1CCCO1 | 13 | -1.72
51 | Cc1cc(Cl)cc2c1NC(=O)C21NC(CCC(=O)O)[C@H]2C(=O)N(Cc3ccccc3Cl)C(=O)[C@H]21 (stereo partly specified) | 38 | -4.92
52 | Cc1c[nH]c(CN(C)c2ncnc3oc(C)nc23)n1 | 2 | -0.45
53 | Cn1cccc1C(=O)N1Cc2c(C(=O)N3CCCC3)nn(C)c2C1 | -18 | 3.24
